Experiment [1] addresses T1, full length human DPEP-1 displayed on HEK293T / HEK293-6E cells (human, UniProt P16444 17-385).
T1 construct: whole, on cells; GPI-anchored on the cell surface; also called hDPEP-1
T1 sequence (looked up): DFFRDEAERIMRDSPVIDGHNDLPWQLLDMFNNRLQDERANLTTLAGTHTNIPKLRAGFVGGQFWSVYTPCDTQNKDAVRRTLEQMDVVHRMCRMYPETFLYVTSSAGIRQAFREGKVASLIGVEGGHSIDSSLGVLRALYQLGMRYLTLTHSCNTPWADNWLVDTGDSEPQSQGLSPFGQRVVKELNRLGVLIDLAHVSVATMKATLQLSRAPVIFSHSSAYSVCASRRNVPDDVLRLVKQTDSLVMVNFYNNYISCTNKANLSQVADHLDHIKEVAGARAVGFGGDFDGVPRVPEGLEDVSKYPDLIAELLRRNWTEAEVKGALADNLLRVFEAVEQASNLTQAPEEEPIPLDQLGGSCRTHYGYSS
Nature of the experiment: flow cytometry, VHH-Fc titrated on HEK293-6E cells expressing human DPEP-1; apparent EC50. As to the method: None of the VHH-Fcs bound to parental, non-DPEP-1-expressing HEK293-6E cells at 125 nM (see FIG. 8E). […] Measurements were in triplicate.
(§1) Transient transfection of HEK293-6E cells were carried out with 100 μg pcDNA3.1 expression plasmid encoding full length human DPEP-1, mouse DPEP-1, rat DPEP-1 or human DPEP-2 combined with 100 μg of PEIpro®, DNA transfection reagent (VWR, Cat #71002-812). Cell surface expression of DPEP-1 or DPEP-2 (DPEP-1/2) were carried out for 96 h. To assess cell binding of VHH-Fcs by flow cytometry, DPEP-1/2 expressing cells were harvested and washed once by PBS centrifugation, and resuspended at 1× 10⁶ cells/mL in PBSB (PBS containing 1% [w/v] BSA) and 0.05% [w/v] sodium azide [SIGMA, Cat #S2002]). Fifty μL of individual DPEP-expressing cells were incubated with 50 μL of VHH-Fcs (250 nM) for 1 h on ice. Subsequently, cells were washed twice with PBSB by centrifugation for 5 min at 1200 rpm, and then incubated for an additional hour on ice with 50 μL of R-Phycoerythrin-conjugated AffiniPure Fab Fragment Goat Anti-Human IgG, Fc Fragment Specific (Jackson Immunoresearch, Cat #109-117-008) at 2 μg/mL diluted in PBSB. After a final wash, cells were resuspended in 100 μL PBSB and data were acquired on a CytoFLEX S flow cytometer (Beckman Coulter) and analyzed by FlowJo software (FlowJo LLC, v10.6.2, Ashland). The binding of the anti-human DPEP-1 rabbit pAb (Proteintech, Cat #12222-1-AP) positive control was detected using goat anti-rabbit IgG antibody conjugated to R-phycoerythrin (Thermo Fisher, Cat #P-2771MP).
Flow cytometry experiments performed with variable concentrations of VHH-Fcs against human and mouse DPEP-1-expressing HEK293-6E cells allowed determination of apparent EC₅₀s. Affinities against human DPEP-1-expressing HEK293-6E cells were determined to be high (low EC₅₀s; range: 0.6-1.8 nM; median: 0.9 nM) (FIG. 9; Table 7).

Experiment [2] addresses T1, full length human DPEP-1 displayed on …. As to the kind of experiment: flow cytometry on human DPEP-1-expressing HEK293-6E cells, VHH-Fc (Table 8 restating Table 7). Background: Flow cytometry measures light scatter and fluorescence of single cells or particles in a stream.
The target is the same in experiment [3]. Nature of the experiment: flow cytometry EC50 on human DPEP-1-expressing cells, VHH-Fc against its monomeric VHH.
Experiment [4] has the same target. Nature of the experiment: flow cytometry, VHH-Fc titrated on HEK293-6E cells expressing human DPEP-1; apparent EC50 (FIG. 10).
The target in experiment [5] is T2, full length mouse DPEP-1 on HEK293-6E cells (mouse, UniProt P31428 17-384).
T2 construct: whole, on cells
T2 sequence (looked up): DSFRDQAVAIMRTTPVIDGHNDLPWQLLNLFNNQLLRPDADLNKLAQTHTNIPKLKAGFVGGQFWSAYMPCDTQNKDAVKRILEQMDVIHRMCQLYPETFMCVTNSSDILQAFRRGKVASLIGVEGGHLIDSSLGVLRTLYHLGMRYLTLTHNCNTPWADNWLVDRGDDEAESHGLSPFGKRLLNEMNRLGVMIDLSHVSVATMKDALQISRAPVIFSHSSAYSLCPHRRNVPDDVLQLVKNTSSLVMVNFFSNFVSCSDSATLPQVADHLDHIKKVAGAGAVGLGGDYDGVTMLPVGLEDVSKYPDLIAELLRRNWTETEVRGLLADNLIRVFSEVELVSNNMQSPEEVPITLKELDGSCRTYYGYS
Nature of the experiment: flow cytometry, VHH-Fc titrated on HEK293-6E cells expressing mouse DPEP-1; apparent EC50 (FIG. 10). As to the method:
Measurements were in duplicate.
as §1, with “Subsequently, cells were washed twice with PBSB by centrifugation for 5 min at 1200 rpm, and then incubated for an additional hour on ice with 50 μL of R-Phycoerythrin-conjugated AffiniPure Fab Fragment Goat Anti-Human IgG, Fc Fragment Specific (Jackson Immunoresearch, Cat #109-117-008) at 2 μg/mL diluted in PBSB.” left out

B1: sdABP08-Fc (VHH fused to human IgG1 hinge-Fc) (Fc fusion)
chain: EVQLVSSGGGLVQPGGSLRLSCKASRFTLERYTIGWFRQAPGKEREGIACISSSGGDTNYADSVKGRFTISRDNVVEKVYLQMDSLKPEDTAVYYCAARTYACDYKSRWLTYEFRGQGTQVTVSSA[not shown - human IgG1 Fc]
notes: Bivalent VHH-Fc, human IgG1 hinge/Fc, made in HEK293-6E cells; also called sdABP08 VHH-Fc
A word on the EC50: it is the concentration needed to bring the measured effect to its halfway point. B1: the EC50 in experiment [1] and in experiment [2] was 0.7 nM throughout.

B2: sdABP07-Fc (VHH fused to human IgG1 hinge-Fc) (Fc fusion)
chain: EVQLVESGGGLVEYGGSLRLSCAASESTLDNYAIAWFRQAPGKEREVVSCVGKSGGRSDYADSVKGRFTISRDNAKNTVYLQMNSLKPEDTAVYSCAARRVWFGGCVLGTSQGQYDYWGQGTQVTVSSA[not shown - human IgG1 Fc]
notes: Bivalent VHH-Fc, human IgG1 hinge/Fc, made in HEK293-6E cells; also called sdABP07 VHH-Fc
Consider B2, for which the EC50 in experiment [1] and in experiment [2] was 0.9 nM in each case. Besides, the “Fold improvement (EC50 of VHH against EC50 of VHH-Fc)” value (“Fold improvement” for short) in experiment [3] came to 16.7 fold.

B3: sdABP06-Fc (VHH fused to human IgG1 hinge-Fc) (Fc fusion)
chain: EVQLVDSGGGLVQPGGSLRLSCAASGFTFSNYDMSWVRQGPGKGPEWVSIISYVGGLTRYSDSVKGRFTISRDNAKNTLYLQMNSLNTEDTALYYCARVKSMHPTSTTGEYDYRGRGTQVTVSSA[not shown - human IgG1 Fc]
notes: Bivalent VHH-Fc, human IgG1 hinge/Fc, made in HEK293-6E cells; also called sdABP06 VHH-Fc
B3: the EC50 in experiment [4] came to 0.8 nM; in experiment [1], 0.6 nM; in experiment [2], 0.6 nM; in experiment [5], 2.8 nM. Moreover, the “Fold improvement” value in experiment [3] turned out to be 1.6 fold.

B4: sdABP05-Fc (VHH fused to human IgG1 hinge-Fc) (Fc fusion)
chain: EVQLVESGGGLVQPGGSLRLSCAASGFTFSTYAMTWVRKAPGKGFEWISSIDSGGGVTLYADSVKGRFTISKDNAKNTLYLQMNNLKPDDTAVYYCVKNYGSTSLQSRGQGTQVTVSSA[not shown - human IgG1 Fc]
notes: Bivalent VHH-Fc, human IgG1 hinge/Fc, made in HEK293-6E cells; also called sdABP05 VHH-Fc
For B4, the EC50 in experiment [1] stood at 0.6 nM; in experiment [2] it was 0.6 nM; in experiment [5], 3.9 nM. Further, in experiment [3], the “Fold improvement” value is 9 fold.

B5: sdABP03-Fc (VHH fused to human IgG1 hinge-Fc) (Fc fusion)
chain: EVQLVESGGGLVQPGGSLRLSCATSEFTLDYYAIGWFRQAPGKEREGVSCISSSGGTTNYADSVKGRFTISSDNAKNTVSLQMNSLRPEDTAVYYCAAARVSAYYLGNYGCLNAEYGYWGQGTQVTVSSA[not shown - human IgG1 Fc]
notes: Bivalent VHH-Fc, human IgG1 hinge/Fc, made in HEK293-6E cells; also called sdABP03 VHH-Fc
As for B5, the EC50 in experiment [1] and in experiment [2] was 0.9 nM in each case. Moreover, in experiment [3], the “Fold improvement” value came out at 611 fold.

B6: sdABP09-Fc (VHH fused to human IgG1 hinge-Fc) (Fc fusion)
chain: QVQLVESGGGLVQPGGSLRLSCAASGFTFSSYGMTWVRQAPGKGFEWVSTISISGSRTTYAGSVKDRFTISRDNAKNTLYLQMNSLKPEDTAVYYCRNILVQGQGTQVTVSSA[not shown - human IgG1 Fc]
notes: Bivalent VHH-Fc, human IgG1 hinge/Fc, made in HEK293-6E cells; also called sdABP09 VHH-Fc
With B6, the EC50 in experiment [1] and in experiment [2] was 0.9 nM throughout.
